The full ranking holds about 110,000 compounds; the median of “z-score” is about -0.1, and the highest 2% start at about 2. This is one part of the list. Active and inactive are the calls of the source.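 Rule for the calls: active = z-score in the third read window above 3 or below -3; inactive = the rest.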
target: Metabotropic glutamate receptor 8 (Rattus norvegicus) (UniProt P70579); assay: rat mGluR8 modulators via GIRK flux, primary screen, cell-based, thallium flux, HTS (AID 488969); conditions: HEK293 rat mGluR8, GIRK (G protein-gated inwardly rectifying potassium channel) thallium flux, FluoZin2; at 10 µM; stronger effect = higher value; submaximal glutamate (EC20) added with thallium
Chain of UniProt P70579 (P70579 whole entry, looked up): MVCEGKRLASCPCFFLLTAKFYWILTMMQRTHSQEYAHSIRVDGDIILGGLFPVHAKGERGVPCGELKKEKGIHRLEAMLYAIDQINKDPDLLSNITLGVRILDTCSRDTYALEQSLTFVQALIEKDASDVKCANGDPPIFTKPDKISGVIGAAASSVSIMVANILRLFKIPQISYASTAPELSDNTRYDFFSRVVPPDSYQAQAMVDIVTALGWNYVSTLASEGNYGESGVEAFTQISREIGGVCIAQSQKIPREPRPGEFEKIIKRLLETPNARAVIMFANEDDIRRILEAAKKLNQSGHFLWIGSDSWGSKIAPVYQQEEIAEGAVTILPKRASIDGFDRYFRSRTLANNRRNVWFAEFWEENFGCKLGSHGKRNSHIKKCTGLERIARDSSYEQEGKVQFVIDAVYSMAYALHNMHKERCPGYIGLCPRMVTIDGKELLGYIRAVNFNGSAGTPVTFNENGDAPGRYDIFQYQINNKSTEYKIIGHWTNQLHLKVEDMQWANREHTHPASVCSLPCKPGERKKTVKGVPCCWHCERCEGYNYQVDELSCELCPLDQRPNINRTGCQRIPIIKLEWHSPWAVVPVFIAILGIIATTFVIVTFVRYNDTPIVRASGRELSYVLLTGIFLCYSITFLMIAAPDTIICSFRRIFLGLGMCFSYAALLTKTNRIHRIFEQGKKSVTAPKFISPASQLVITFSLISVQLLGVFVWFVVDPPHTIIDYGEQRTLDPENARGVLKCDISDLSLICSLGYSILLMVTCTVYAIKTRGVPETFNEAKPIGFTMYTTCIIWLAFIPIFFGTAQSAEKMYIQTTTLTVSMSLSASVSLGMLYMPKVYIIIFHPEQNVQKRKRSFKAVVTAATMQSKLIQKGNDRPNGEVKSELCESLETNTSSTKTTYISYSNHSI

| Compound | z-score |
| --- | --- |
| O=[N+]([O-])c1ccc(N2CCN(Cc3ccccc3)CC2)c(S(=O)(=O)N2CCOCC2)c1 | -0.3 |
| COc1cc(C)nc(N2CCC(C(N)=O)CC2)n1 | 0.0462 |
| COc1cccc(C(=O)NCC(=O)n2nc(C)cc2C)c1 | 0.363 |
| Oc1ccc(N=Nc2cccc(C(F)(F)F)c2)cc1C=Nc1ccc(N2CCOCC2)cc1 | -0.258 |
| Clc1ccc(-c2ccc(/C=N/Nc3nncc(-c4ccccc4)n3)o2)cc1 | -0.0188 |
| C#CCOc1c(Br)cc(/C=N\NC(=O)CN2CCOCC2)cc1OCC | -0.919 |
| CSc1ccc(/C=c2\s/c(=C\C(=O)C(C)(C)C)n(CC(=O)NCCC3=CCCCC3)c2=O)cc1 | -0.0802 |
| COc1ccc2c(c1)c1nc3ccccc3nc1n2CCCN1C(=O)c2ccccc2C1=O | -0.0232 |
| Cn1nccc1C(=O)c1ccc(Cl)cc1 | 0.173 |
| COc1cc(NC(=O)c2cc(C(C)C)on2)c(OC)cc1Cl | 0.0343 |
| CCOc1ccc(OCc2ccc(C(=O)NCc3ccncc3)o2)cc1 | -0.0211 |
| COc1cc(NC(=O)C2CCCO2)c(OC)cc1NC(=O)c1ccccc1 (stereo not given) | -0.236 |
| Cc1ncc2c(c1OC(=O)c1ccccc1)COC(C)(C)OC2 | 0.712 |
| Cc1nn(CC(=O)NCc2ccccc2)c(C)c1[N+](=O)[O-] | -0.00269 |
| CCN1C(=O)/C(=C/c2nc3ccccc3c(=O)n2-c2ccc(C)cc2)c2ccccc21 | -0.146 |
| O=C(CN1CCN(c2ccccc2O)CC1)NC(c1ccccc1)c1ccccc1 | 0.00777 |
| Cc1ccccc1-n1c(-c2cccnc2)n[nH]c1=S | -0.275 |
| CCCC(C)C(=O)NCc1ccc2c(c1)OCO2 (stereo not given) | -0.306 |
| CC/C(Cc1ccccc1)=N\NC(=O)c1cc(C)oc1C | -0.582 |
| O=C(NNC(=O)c1ccccc1-n1cccc1)c1ccc(Cl)cc1 | -0.0349 |
| COc1cc(C)nc(OCCNC(=O)COc2ccc(Cl)cc2C)n1 | 0.0609 |
| COc1cc(C(=O)Nc2ccc(S(=O)(=O)NC(C)C)cc2)cc(OC)c1OC | -0.131 |
| Cc1cccc(C(=O)NC(=S)NNC(=O)c2ccccc2Cl)c1 | active: 5.34 |
| NC(=O)c1c(NC(NC(=O)c2ccco2)C(=O)c2ccc(Cl)cc2)sc2c1CCCC2 (stereo not given) | -0.44 |
| CC(Sc1nnc(C2CCCCC2)n1N)C(=O)NCc1ccc2c(c1)OCO2 (stereo not given) | 0.393 |
| CCN1CCN(C(=O)/C=C/c2ccc(C)o2)CC1 | -0.161 |
| O=C(C#Cc1ccccc1)c1ccc([N+](=O)[O-])cc1 | -0.372 |
| CCC(=O)N1c2ccccc2[C@@H](N(C(C)=O)c2ccccc2)C[C@H]1C | -0.27 |
| COc1cc(C)nc(N2CCCC(C(=O)Nc3cccc(Cl)c3Cl)C2)n1 (stereo not given) | -0.0262 |
| O/N=C/c1cc(Br)ccc1OCc1ccccc1F | -0.171 |
